PubChem BioAssay AID651820 (National Center for Advancing Translational Sciences (NCATS), 2012)
The whole screen tested about 340,000 compounds, of which about 12,000 (3.5%) were called active. The shares of active, inactive and inconclusive entries below differ from those in the screen. Calls come from the whole dose curve; as a rule, active = well fitted inhibition curve with a large enough effect; inconclusive = small, poorly fitted or top-dose-only effect, or another doubt; inactive = no such curve, though single readings can be large or run the other way. No potency is given beside an inconclusive call; the fits are too rough.

assay: qHTS Assay for Inhibitors of Hepatitis C Virus (HCV); settings: Huh7.5.1 HCVcc-Cre (HCVcc is cell-culture hepatitis C virus) infection, luciferase reporter, 44 h; series mostly up to 41.8 µM
In short: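 Infectious HCVcc-Cre (~0.5 moi) was added to cells just after compound, with cells seeded 4 h earlier at 1,000 per well. Luciferase activity after 44 h culture reported infection; substrate was incubated 15 min at room temperature before reading.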
Potency is the fitted concentration of half-maximal effect; tags give direction and shape of the fitted curve.

Structure (SMILES) | Potency
Cc1ccc(/C(N)=N/OC(=O)c2ccc(C)cc2Cl)cc1 | inconclusive [inhibitor, single point]
Fc1ccc(-c2nc(-c3cccs3)[nH]c2-c2ccc(F)cc2)cc1 | inconclusive [inhibitor, partial curve]
O=C(NCCCO)C(=O)NCC(c1ccc2c(c1)OCO2)N1CCN(c2ccc(F)cc2)CC1 (configuration not stated) | inactive
NC(=O)c1c(-c2ccc(Cl)cc2Cl)csc1NC(=O)Cc1ccccc1 | inconclusive [inhibitor, full curve]
CCOc1ccc(NC(=O)CSc2nc3ccccc3c(=O)n2Cc2cccs2)cc1 | inconclusive [inhibitor, single point]
CS(=O)(=O)N1CCc2cc(C(=O)Nc3ccc(O)cc3)ccc21 | inactive
CC(=O)N1CCN(CC(=O)Nc2ccc([N+](=O)[O-])cc2Br)CC1 | inconclusive [inhibitor, single point]
CN(CC(=O)Nc1ccc(Cl)cc1)CC(=O)Nc1cccc(Br)c1 | inactive
Cc1cccc(C)c1NC(=O)CSc1nnc(-c2ccco2)n1N | inactive
CCc1cccc(NC(=O)C2CCN(c3ncnc4sc(C)c(C)c34)CC2)c1 | active: 11.2 µM
Cc1cc(OCCCCN2C(=O)NC(C)(C)C2=O)ccc1[N+](=O)[O-] | inconclusive [inhibitor, single point]
CCOC(=O)C1=C(N)Oc2cc(O)ccc2C1c1cccc([N+](=O)[O-])c1 (configuration not stated) | inconclusive [inhibitor, single point]
Cc1cc(/C=N/NC(=O)c2cccc([N+](=O)[O-])c2)c(C)n1-c1ccc(Cl)cc1Cl | inconclusive [inhibitor, single point]
COc1cc(OC)c(C(=O)Nc2cc(Cl)ccc2-n2cncn2)cc1OC | active: 12.6 µM
COc1cc(-c2nn3c(Cc4ccccc4)nnc3s2)cc(OC)c1OC | inconclusive [inhibitor, full curve, poor fit]
CCOC(=O)c1c(C)[nH]c(-c2csc(C)n2)c1C | inconclusive [inhibitor, single point]
CC(C)CCNC(=O)c1cccc(Cl)c1 | inactive
CN(C)c1ccc(CNCCC(Cc2ccccc2)c2ccco2)cc1 (configuration not stated) | inconclusive [inhibitor, single point]
COc1ccc(CN(C)C(=O)c2cccc(C(=O)N(C)Cc3ccc(OC)cc3)c2)cc1 | active: 11.2 µM
NCC12CC3CC(C1)CC(c1ccc(Cl)cc1)(C3)C2 | inconclusive [inhibitor, single point]
Cn1c(=O)c2c(nc(SCCN3CCCCC3)n2Cc2ccccc2)n(C)c1=O | inconclusive [inhibitor, partial curve]
CCCCNC(=O)c1cn(CC)c2ccc(S(=O)(=O)N3CCCCCC3)cc2c1=O | inactive
CCc1cccc(NC(=O)C2CCN(S(=O)(=O)c3ccc4c(c3)NC(=O)CO4)CC2)c1 | inconclusive [inhibitor, single point]

Structure (SMILES) | Potency
COc1ccccc1CNC(=O)/C=C/c1ccc(S(=O)(=O)NCc2ccco2)cc1 | inconclusive [inhibitor, single point]
CCCn1c(SC(C)C(=O)N2CCOCC2)nc2ccc(Br)cc2c1=O (configuration not stated) | inconclusive [inhibitor, partial curve]
CCc1nnc2sc(-c3cc(-c4ccccc4)nc4ccccc34)nn12 | inconclusive [inhibitor, single point]
O=C(c1ccc(S(=O)(=O)c2ccc(F)cc2)c([N+](=O)[O-])c1)N1CCCCCC1 | inconclusive [inhibitor, single point]
Cc1ccc(C)c(S(=O)(=O)N2CCN(C(=O)Cc3ccc(S(=O)(=O)N4CCOCC4)s3)CC2)c1 | inconclusive [inhibitor, single point]
COc1ccc2c3c1OC1C(O)C=CC4C(C2)[N+](C)(C)CCC341 (configuration not stated) | inactive
Cc1ccc(-c2noc(C3CCCN(C(=O)c4ccc(Cl)cc4)C3)n2)o1 (configuration not stated) | inconclusive [inhibitor, single point]
Cc1ccc(Nc2nc(Cl)nc(N(C)C#N)n2)cc1 | inconclusive [inhibitor, single point]
CC1(C)Cc2ccccc2C2=NNC(=O)C2=N1 | inconclusive [inhibitor, single point]
COc1ccc(CNC(=O)CCCn2ccc3cc(S(=O)(=O)N4CCCC4)ccc32)cc1 | inconclusive [inhibitor, single point]
CCN(CC)S(=O)(=O)c1cc(NC(=O)c2ccc(Br)s2)ccc1C | active: 10 µM
CCc1nc2c(c(=O)c3ccccc3n2C)c(=O)n1C1CCCCCC1 | inconclusive [inhibitor, single point]
COc1ccc2c(c1)c1ncn(CCc3ccccc3)c(=O)c1n2C | inconclusive [inhibitor, single point]
CCCCn1c(SCc2nc3ccccc3s2)nc2ccccc2c1=O | inconclusive [inhibitor, single point]
C=CCn1cc(C(=O)OCC)c(=O)c2ccc(F)cc21 | inconclusive [inhibitor, single point]
N/C(=N\OC(=O)c1ccc2ccccc2c1)c1ccncc1 | inconclusive [inhibitor, single point]
O=C(NCCOc1ccccc1)c1cc([N+](=O)[O-])ccc1N1CCOCC1 | inconclusive [inhibitor, full curve]
CCNC(=O)NC(=O)C(C)Sc1nc2ccccc2n1CC(C)C (configuration not stated) | inconclusive [inhibitor, partial curve]
CC(C)(C)n1nc2c(c1NC(=O)COc1ccc(Cl)cc1)CSC2 | inconclusive [inhibitor, single point]
CCOc1ccc(CN(C)C(=O)Cc2c[nH]c3ccccc23)cc1 | inconclusive [inhibitor, single point]
Cc1cccc(NC(=O)COc2cccc3c2CCN(C)C3=O)c1C | inconclusive [inhibitor, single point]
CSc1nc2nc(C)cc(-c3ccccc3)n2n1 | active: 7.94 µM
CC1=CC2=NC(=O)/C(=C\c3cccn3CCOc3ccccc3)C(=N)N2O1 | inconclusive [inhibitor, partial curve]

Structure (SMILES) | Potency
COc1ccc(Cl)cc1C(=O)CSc1nnnn1C1CCCCC1 | inconclusive [inhibitor, single point]
Cc1ccccc1OCC(=O)NCC(c1cccs1)N1CCOCC1 (configuration not stated) | inconclusive [inhibitor, single point]
COc1ccc2oc(=Nc3cc(F)ccc3F)c(C(N)=O)cc2c1 | inconclusive [inhibitor, partial curve, poor fit]
CCOC(=O)c1c(NC(=O)c2ccc(-n3cnnn3)cc2)sc2c1CCCC2 | inconclusive [inhibitor, full curve, poor fit]
COc1cc(/C=C/c2ccc3cccc(OC)c3n2)c(OC(C)=O)c([N+](=O)[O-])c1 | active: 8.91 µM
COc1cc(C(=O)N/C(=C\c2cn(C)c3ccccc23)C(=O)NCCCN2CCOCC2)cc(OC)c1OC | inconclusive [inhibitor, single point]
CC1CCCCC1NC(=O)C1CCN(C(=O)c2sccc2-n2cccc2)CC1 (configuration not stated) | inconclusive [inhibitor, partial curve]
C=CCn1c(SCc2csc(C)n2)nc2sc3c(c2c1=O)CCCC3 | inconclusive [inhibitor, partial curve]
CN(C)S(=O)(=O)c1cccc(NC(=O)COc2ccc(C(=O)c3ccccc3)cc2)c1 | inconclusive [inhibitor, single point]
C=C(C)c1cccc(C(C)(C)NC(=O)NCc2ccc(OC)cc2)c1 | inactive
COc1ccc(NC(=O)c2oc3ccccc3c2NC(=O)C2CC2)cc1 | inactive
CSc1ncccc1C(=O)N1CCN(S(=O)(=O)c2ccc3ccccc3c2)CC1 | inconclusive [inhibitor, single point]
Cc1nc(N2CCN(S(=O)(=O)c3ccc(F)cc3)CC2)c2c(-c3cccs3)csc2n1 | inconclusive [inhibitor, partial curve]
O=C(CCCCCn1c(=S)[nH]c2ccc(N3CCOCC3)cc2c1=O)NC1CCN(Cc2ccccc2)CC1 | inconclusive [inhibitor, partial curve]
O=C(CC1SC(=Nc2ccccc2)N(CCc2ccccn2)C1=O)Nc1ccc(F)cc1 (configuration not stated) | inactive
COc1ccc(Cl)cc1NC(=O)COC(=O)/C=C/c1c(C)nn(C2CCS(=O)(=O)C2)c1Cl (configuration not stated) | inconclusive [inhibitor, single point]
CCc1ccccc1NC(=O)c1sc2nc(C)cc(C)c2c1N | inconclusive [inhibitor, single point]
C=CCNC(=S)N1CCC(C(=O)c2ccc(Cl)cc2)CC1 | inconclusive [inhibitor, single point]
NC(=O)c1ccc(NC(=O)C2CCCC2)cc1 | inactive
CCc1ccc(C(=O)NCc2cnn(C)c2)s1 | inactive
Cc1ccccc1OCCNC(=O)/C=C/c1ccc([N+](=O)[O-])cc1 | inconclusive [inhibitor, single point]
